Reference: patent US6541195B2, “Correction of genetic defects using chemical chaperones” (The Regents of the University of California, priority 1996, dated 2003)

Test system: temperature sensitive mutant of the E1 enzyme (ts20 cells)
[1] = 39.5° C., two days, 100% D2O, 75 mM TMAO, 0.75 M glycerol

SMILES: [2H]O[2H] [deuterated water]
- cell proliferation (cell number) (39.5° C., 1, 2 or 3 days): failed to exhibit any significant growth
- apparent growth rate (phase-contrast microscopy) [1]: only slightly higher
- cell morphology (phase-contrast microscopy) [1]: intermediate phenotype

SMILES: C[N+](C)(C)[O-] [TMAO, trimethylamine N-oxide]
- apparent growth rate (phase-contrast microscopy): normal growth rates
- cell morphology (phase-contrast microscopy): well-rounded morphology
- cell proliferation (cell number): recovery of cell proliferation

SMILES: OCC(O)CO [glycerol]
- cell proliferation (cell number) (39.5° C., 1, 2 or 3 days): recovery of cell proliferation
- apparent growth rate (phase-contrast microscopy) [1]: normal growth rates
- cell morphology (phase-contrast microscopy) [1]: well-rounded morphology

Where two headings read alike, the source gives them in different places.
